According to the supplement of paper PMC11383711:
This is one part of the list. Binding of human antibodies (heavy:light variable regions, tested as scFv in one mRNA-display pool) to influenza hemagglutinin, with or without the stem antibody CR9114 bound first. Score = (mean enrichment − median) / interquartile range of that screen; higher = more enriched, 0 = typical non-binder. Active = above the paper's cut-off per screen: stems 28; unblocked H1 Solomon Islands 5, H1 Michigan 3, H3 5, H5 19, H7 2.85, both B 5; blocked 9, 7, H5 10, H7 10, B Phuket 10, B Lee 11.5. Scores are scaled within each screen and are no affinities; replicates correlate at about 0.6 to 0.9, and antibodies rare in the pool are noisier.

Experiments:
Assay in all cases: mRNA display binding score; higher = more enriched on the antigen
[1] = target: Influenza A H1N1 A/Michigan/45/2015 hemagglutinin ectodomain
Description: (§1)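 A pool of natively paired antibodies, displayed as scFv on mRNA, was selected once on antigen-coated beads and sequenced before and after; two replicates.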

[2] = target: Influenza A H1N1 A/Solomon Islands/3/2006 hemagglutinin ectodomain
Description: as §1

[3] = target: Influenza A H3N2 A/Singapore/INFIMH-16-0019/2016 hemagglutinin ectodomain; conditions: antigen blocked with: nothing
Description: as §1

[4] = target: Influenza A H5N1 A/Qinghai/1A/2005 hemagglutinin ectodomain
Description: as §1

[5] = target: Influenza A H7N9 A/Shanghai/2/2013 hemagglutinin ectodomain
Description: as §1

[6] = target: Influenza B/Lee/1940 hemagglutinin ectodomain
Description: as §1

[7] = target: Influenza B/Phuket/3073/2013 hemagglutinin ectodomain
Description: as §1

[8] = antigen blocked with: 2 µM CR9114 IgG

Measured: mRNA display binding score

B1: K77-1C12 (protein)
chain 1: EVQLVESGGGVVQPGGSLRLSCAASGFTFSNYGMHWVRQAPGKGLEWVAFIRYDGSNEYYGDSAKGRFTISRDNSKNTLYLQLISLRPDDTAVYYCANEPDPQSGGLRNDGVVHHDHWGQGTLVTVSS
chain 2: QSALTQPVSVSGSPGQSITISCTGTSFDVGGYHYVSWYQQYPGKAPKLMIYDVSKRPSGVSNRFSGSKSGITASLTISGLQAEDEADYHCGSYTSSYTWVFGGGTKLTVL
inactive: [1]; [8] -0.54 | [1]; antigen blocked with: nothing -0.64 | [2]; [8] -0.524 | [2]; antigen blocked with: nothing -0.467 | [3] -0.131 | [4]; [8] -0.852 | [4]; antigen blocked with: nothing -0.714 | [5]; [8] -0.453 | [5]; antigen blocked with: nothing -0.78 | [6]; [8] -0.096 | [6]; antigen blocked with: nothing -0.424 | [7]; [8] 0.373 | [7]; antigen blocked with: nothing -0.161

B2: antibody 4D06 (protein)
chain 1: VQLVESGGGVVQPGTSLRLSCVASEFTFSSSGMHWVRQAPGKGLEWVAIISYDGRKKYYVDSVEGRFTISRDNSKNTLYLQMNSLRVEDTAIYYCAKASTVTKRYNWFDPWGQGTLVTVSS
chain 2: DIQMTQSPSSLSASVGDRVTITCRASESISSYLNWYQQRPGKAPKLLIYAASSLQTGVPSRFSGSGSGTDYTLTISSLQPEDFATYFCQQSYSTPLTFGPGTKVDIK
inactive: [1]; [8] 0.416 | [2]; [8] -0.078 | [3] 0.765 | [4]; [8] 0.617 | [4]; antigen blocked with: nothing 1.76 | [5]; [8] 1.55 | [5]; antigen blocked with: nothing 0.67 | [6]; [8] 0.914 | [6]; antigen blocked with: nothing 3.09 | [7]; [8] 0.374 | [7]; antigen blocked with: nothing 3.01
active: [1]; antigen blocked with: nothing 3.11 | [2]; antigen blocked with: nothing 6.75

B3: W85-2F03 (protein)
chain 1: EVQLVESGGGLVQPGRSLRLSCTTSEFTFDEYTMSWVRQAPGKGLEWVGFIGSKAYRGTTEYAASVKGRFTISRDDFRSIAYLQMNSLKTEDTAVYYCTRDSGFGDYFDYWGQGTLVTVSS
chain 2: QSALTQPASVSGSPGQSITISCTGTSGDIGGYNYVSWYQQHPGKAPKLMIYDVSNRPSGVSNRFSASQSGKTASLTISGLQAEDEADYYCFSFTSTSTWVFGGGTKLTVL
inactive: [1]; [8] -0.199 | [1]; antigen blocked with: nothing -0.473 | [2]; [8] 0.357 | [2]; antigen blocked with: nothing -0.305 | [3] 0.243 | [4]; [8] -0.386 | [4]; antigen blocked with: nothing -0.0911 | [5]; [8] 0.486 | [5]; antigen blocked with: nothing -0.154 | [6]; [8] 1.25 | [6]; antigen blocked with: nothing -0.0475 | [7]; [8] 0.355 | [7]; antigen blocked with: nothing -0.137

B4: K77-2A09 (protein)
chain 1: EVQVVESGGTVVQPGGSLTLSCTTSGFTFDNFAMHWVRQAPGKGLEWVALVGWDSAVIYYADSVQGRFNISRDNSKNSLYLQMNSLRAEDTALYYCAKDDDPGNYGYFHYSLDVWGQGTAVTVTS
chain 2: DVVMTQSPLSLPVTLGQPASISCRSSQSLVDSYGDTYLNWFQQRPGQSPRRLIYKVSNRDSGVPDRFSGSGSGTDFTLKISRVEADDVGVYYCMQGTHWPLTFGGGTKVEI
inactive: [1]; [8] 0.111 | [1]; antigen blocked with: nothing -0.165 | [2]; [8] 1.3 | [2]; antigen blocked with: nothing 0.56 | [3] -0.147 | [4]; [8] 1.01 | [4]; antigen blocked with: nothing -0.0793 | [5]; [8] -0.907 | [5]; antigen blocked with: nothing 0.0835 | [6]; [8] 1.75 | [6]; antigen blocked with: nothing 0.734 | [7]; [8] 0.54 | [7]; antigen blocked with: nothing 1.05

B5: 56.d.01 (protein)
chain 1: EVQLVESGGGLVQPGGSLRLSCSASGFTVSNYAMHWVRQAPGKGLEYVSAISVNGFSTFYTDSVKGRFTISKDNSKNTLYLQMSSLRPEDTAVYYCVKAESYDFWSGYDWGQGTQVTVSS
chain 2: EIVLTQSPGTLSLSPGERATLSCRASQSVSSSSLAWYQQKPGQAPRLLIFGASSRATGIPDRFSGSGSGTDFTLTISRLEPEDFAVYYCQQYGSLGTFGGGTKVEIK
inactive: [1]; [8] -0.32 | [1]; antigen blocked with: nothing 0.0501 | [2]; [8] 0.167 | [2]; antigen blocked with: nothing -0.214 | [3] 1.18 | [4]; [8] -0.25 | [4]; antigen blocked with: nothing 0.69 | [5]; [8] -1.01 | [5]; antigen blocked with: nothing -0.0636 | [6]; [8] -0.269 | [6]; antigen blocked with: nothing -0.229 | [7]; [8] -0.588 | [7]; antigen blocked with: nothing -0.248

B6: antibody 5D03 (protein)
chain 1: VQLVQSGAEMKKPGESLQISCEGSGYNFNGYWIGWLRQMPGKGLEWMGIIHPSDSDTRYSPSLQGQVTISVDKSISTAYLLWNSLKTSDTAIYYCARRGGANYGLDYWGQGTLVTVSS
chain 2: DIQMTQSPSSLSASVGDRVTITCRARQTINRYLNWYQQKPGKAPKLLIYAATNLQSGVPSRFSGTGSGTLFTLTISSLQPEDLATYFCQQTYSTLGTFGPGTKVDIK
inactive: [1]; [8] -0.401 | [1]; antigen blocked with: nothing -0.138 | [2]; [8] 0.226 | [2]; antigen blocked with: nothing -0.236 | [3] 2.72 | [4]; [8] -0.455 | [4]; antigen blocked with: nothing -0.345 | [5]; [8] -0.774 | [5]; antigen blocked with: nothing 0.254 | [6]; [8] -0.464 | [6]; antigen blocked with: nothing 0.0114 | [7]; [8] -0.112 | [7]; antigen blocked with: nothing -0.0872

B7: R95-2H06 (protein)
chain 1: EVQLVESGGVVQQPGGALRLSCAASGLTFDEYAMHWVRQAPGKGLEWVSLITWDGGTTYYADSVKGRFTISRDNSKNSLYLQMNSLRPEDSGLYYCAKDPYGSGSAGWFDPWGQGTLVTVSP
chain 2: DIQMTQSPSSLSASVGDRVNITCRASQSIIFYLNWYQQRPGKAPKLLIYHASILQSGVPSRFTGSGSGTDFTLTISSLQPEDLATYYCQQSYSIPLTFGGGTKVEIK
inactive: [1]; [8] -0.0579 | [1]; antigen blocked with: nothing -0.327 | [2]; [8] -0.0877 | [2]; antigen blocked with: nothing -0.52 | [3] -0.483 | [4]; [8] 0.286 | [4]; antigen blocked with: nothing -0.243 | [5]; [8] -0.144 | [5]; antigen blocked with: nothing -0.118 | [6]; [8] 0.198 | [6]; antigen blocked with: nothing -0.295 | [7]; [8] -0.258 | [7]; antigen blocked with: nothing -0.471

B8: antibody 3E06 (protein)
chain 1: VQLQESGPGLVKPSETLSLNCTVSGGSIITSSLYWGWIRQPPGKGLEWIGCIYVDGSTYYNPSLTSRVTISVDTSKNQFSLSLTSVTAQDTAVYYCARPTGEGGGAFDIWGQGTMVTVSS
chain 2: DIQMTQSPSTLSASVGDRVTITCRASQSISIWLAWFQQKPGKAPKLLIYKASTLETGVPSRFSGSGSGTEFTLTISSLQPDDFATYYCQQYNIYWTFGQGTKVEIK
inactive: [1]; [8] 0.288 | [1]; antigen blocked with: nothing 1 | [2]; [8] 0.0349 | [2]; antigen blocked with: nothing 0.748 | [3] 1.15 | [4]; [8] 0.598 | [4]; antigen blocked with: nothing 0.331 | [5]; [8] 0.0849 | [5]; antigen blocked with: nothing 1.09 | [6]; [8] -0.279 | [6]; antigen blocked with: nothing 0.235 | [7]; [8] 0.566 | [7]; antigen blocked with: nothing -0.00335

B9: antibody 1G03 (protein)
chain 1: EVQLVETGGGLIQPGGSLRLSCAASGFIVSSNYMSWVRQAPGKGLEWVSVIYGGSSTYYADSVKGRFIISRDNSKSTLYLQMNSLRAEDTAVYYCARGPADIVAAGTYPYYYYAMDVWGQGTTVTVSS
chain 2: DIQMTQSPDSLAVSLGERATINCKSSQSVLYSSNNKNYLAWYQQKPGQPPKLLIYWASTRESGVPDRFSGSGSGTNFTLTIRSLQAEDVAVYYCQQYYITPYTFGQGTKVEIK
inactive: [1]; [8] -0.252 | [1]; antigen blocked with: nothing -0.508 | [2]; [8] -0.878 | [2]; antigen blocked with: nothing 0.212 | [3] 2.43 | [4]; [8] -0.453 | [4]; antigen blocked with: nothing -0.212 | [5]; [8] -0.23 | [5]; antigen blocked with: nothing -0.207 | [6]; [8] 0.567 | [6]; antigen blocked with: nothing 0.583 | [7]; [8] -0.159 | [7]; antigen blocked with: nothing 0.576

B10: K77-2F08 (protein)
chain 1: EVQLVESGEGVVHPGTSLRLSCAASGFTFGSYGLHWVRQAPGKGLEWVAFISYDGGEKSYADSLKGRFAISRDKSKNVLYLEMNTLRAEDTALYSCARTWNSYFFDQWGQGTLVTVSS
chain 2: QSALTQPASVSGSPGQSITISCTGTGSDVGIYNLVSWYQHHPGKAPKFMIYEVSERPSGVSSRFSGSKSGNTASLTISGLQAEDEANYYCCSYAGSNTWVFGGGTKLTVL
inactive: [1]; [8] -0.375 | [1]; antigen blocked with: nothing 0.134 | [2]; [8] -0.172 | [2]; antigen blocked with: nothing -0.0516 | [3] -0.52 | [4]; [8] -0.847 | [4]; antigen blocked with: nothing 0.0752 | [5]; [8] 0.222 | [5]; antigen blocked with: nothing 0.216 | [6]; [8] 0.897 | [6]; antigen blocked with: nothing -0.16 | [7]; [8] -0.432 | [7]; antigen blocked with: nothing -0.064

B11: C1-B01 (protein)
chain 1: VQLVESGGGLVQPGGSLRLSCAASGFPFATYSMNWVRQAPGKGLEWLSYISSSSATVFYADSVKGRLTISRDNAKNSLYLQMYSLRAEDTAVYYCAREEVVVAGTPFDSWGQGALVTVSS
chain 2: EIVMTQSPATLSVSPGERATLSCRASQSVGSRLAWYQQKPGQPPRLLLYDASTRATDIPARFSGTGYGTEFTLTISSIQSEDFAVYHCHQYSGWPPWTFGQGTKVEIK
inactive: [1]; [8] -0.552 | [1]; antigen blocked with: nothing 0.803 | [2]; [8] -0.662 | [2]; antigen blocked with: nothing 0.817 | [3] -0.444 | [4]; [8] -0.782 | [4]; antigen blocked with: nothing 0.293 | [5]; [8] -0.216 | [5]; antigen blocked with: nothing 0.0972 | [6]; [8] 0.371 | [6]; antigen blocked with: nothing -0.0849 | [7]; [8] -0.219 | [7]; antigen blocked with: nothing 0.468

B12: R95-2E12 (protein)
chain 1: QVQLQESGPGLVKPSETLSLTCVVSDGSISSSTYYWGWIRQPPGKGLEWIGSIYYSGDTYYNPSLKSRVITSVDTSKNQFSLKLSSVTAADTAVYYCARHGPWQLSYFDYWGQGTLVTVSS
chain 2: QSALTQPRSVSGSPGQSVTISCTGTGSRVGGYHYVSWYQQHPGKAPKLMIYEVNKRPSGVPDRFSGSQSGNTASLTISGLQAEDEADYYCCSYAGSFLLFGGGTKLSV
inactive: [1]; [8] -0.211 | [1]; antigen blocked with: nothing -0.66 | [2]; [8] -0.604 | [2]; antigen blocked with: nothing -0.579 | [3] -0.0865 | [4]; [8] -0.865 | [4]; antigen blocked with: nothing -0.548 | [5]; [8] -0.387 | [5]; antigen blocked with: nothing -0.588 | [6]; [8] -0.163 | [6]; antigen blocked with: nothing -0.454 | [7]; [8] -0.692 | [7]; antigen blocked with: nothing -0.4
